Measured values reported in PMC12820563.
The other results are listed elsewhere or left out. The list includes weakly bound sequences.

Target: T1, MBP-FoxP3dN (UniProt Q99JB6)
T1 sequence: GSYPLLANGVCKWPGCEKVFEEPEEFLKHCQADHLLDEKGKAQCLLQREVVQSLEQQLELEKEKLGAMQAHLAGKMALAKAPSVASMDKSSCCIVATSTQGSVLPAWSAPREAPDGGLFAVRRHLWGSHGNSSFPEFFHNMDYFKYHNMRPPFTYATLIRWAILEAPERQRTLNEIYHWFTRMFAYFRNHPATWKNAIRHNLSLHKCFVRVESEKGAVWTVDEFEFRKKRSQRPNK
Assay: PD-seq (MBP pull-down with sequencing)
Details: 20 mM Tris-HCl pH 7.5, 100 mM NaCl, 1.5 mM MgCl2, 0.4 uM protein, 0.1 uM dsDNA library, 30 min, room temperature, amylose pull-down; high values mean tight binding; double strand, one strand shown

With “GATGATTGTTCTCCCAGCTGATGAATTGTTCCGTTCGAGTAAACAAATTTTCCTAATCTTTCTGTTCAAGCGCCATCTAC” as the sequence, how does the binding signal (RPM ratio (pull-down/input)) read?
Its binding signal (RPM ratio (pull-down/input)) is 0.418.

For “GATGATTGTTCTCCCAGCTGATGAATTGTACGGGTCGAGTAAACAAATTTTCCTAATCTTTCTGTTCAAGCGCCATCTAC”, which binding signal (RPM ratio (pull-down/input)) is on record?
The binding signal (RPM ratio (pull-down/input)) was 0.298.

“GATGATTGTTCTCCCAGCTGATGAATTTTGTCTTTCGAGTAAACAAATTTTCCTAATCTTTCTGTTCAAGCGCCATCTAC” was tested. Which binding signal (RPM ratio (pull-down/input)) did it give?
The binding signal (RPM ratio (pull-down/input)) was 2.51.

How did the binding signal (RPM ratio (pull-down/input)) turn out when “GATGATTGTTCTCCCAGCTGATGAATTAAACCGATCGAGTAAACAAATTTTCCTAATCTTTCTGTTCAAGCGCCATCTAC” was run?
Its binding signal (RPM ratio (pull-down/input)) is 0.285.

How did the binding signal (RPM ratio (pull-down/input)) turn out when “GATGATTGTTCTCCCAGCTGATGAATTGCAAGTGTCGAGTAAACAAATTTTCCTAATCTTTCTGTTCAAGCGCCATCTAC” was run?
Its binding signal (RPM ratio (pull-down/input)) is 1.16.

For “GATGATTGTTCTCCCAGCTGATGAATTAACAGGATCGAGTAAACAAATTTTCCTAATCTTTCTGTTCAAGCGCCATCTAC”, which binding signal (RPM ratio (pull-down/input)) is on record?
The binding signal (RPM ratio (pull-down/input)) was 0.226.

With “GATGATTGTTCTCCCAGCTGATGAATTCTGTTCTTCGAGTAAACAAATTTTCCTAATCTTTCTGTTCAAGCGCCATCTAC” as the sequence, how does the binding signal (RPM ratio (pull-down/input)) read?
Its binding signal (RPM ratio (pull-down/input)) is 0.746.

How did the binding signal (RPM ratio (pull-down/input)) turn out when “GATGATTGTTCTCCCAGCTGATGAATTCGGCCAGTCGAGTAAACAAATTTTCCTAATCTTTCTGTTCAAGCGCCATCTAC” was run?
The binding signal (RPM ratio (pull-down/input)) was 1.25.

How did the binding signal (RPM ratio (pull-down/input)) turn out when “GATGATTGTTCTCCCAGCTGATGAATTGTTAACTTCGAGTAAACAAATTTTCCTAATCTTTCTGTTCAAGCGCCATCTAC” was run?
Its binding signal (RPM ratio (pull-down/input)) is 0.587.

How did the binding signal (RPM ratio (pull-down/input)) turn out when “GATGATTGTTCTCCCAGCTGATGAATTACAATCATCGAGTAAACAAATTTTCCTAATCTTTCTGTTCAAGCGCCATCTAC” was run?
The binding signal (RPM ratio (pull-down/input)) was 1.11.

“GATGATTGTTCTCCCAGCTGATGAATTTGAGGGCTCGAGTAAACAAATTTTCCTAATCTTTCTGTTCAAGCGCCATCTAC” was tested. Which binding signal (RPM ratio (pull-down/input)) did it give?
Its binding signal (RPM ratio (pull-down/input)) is 0.419.

How did the binding signal (RPM ratio (pull-down/input)) turn out when “GATGATTGTTCTCCCAGCTGATGAATTAACCTACTCGAGTAAACAAATTTTCCTAATCTTTCTGTTCAAGCGCCATCTAC” was run?
Its binding signal (RPM ratio (pull-down/input)) is 0.289.

Which binding signal (RPM ratio (pull-down/input)) does the source give for “GATGATTGTTCTCCCAGCTGATGAATTAGTCTAGTCGAGTAAACAAATTTTCCTAATCTTTCTGTTCAAGCGCCATCTAC” here?
The binding signal (RPM ratio (pull-down/input)) was 0.531.

How did the binding signal (RPM ratio (pull-down/input)) turn out when “GATGATTGTTCTCCCAGCTGATGAATTTCCAGGTTCGAGTAAACAAATTTTCCTAATCTTTCTGTTCAAGCGCCATCTAC” was run?
The binding signal (RPM ratio (pull-down/input)) was 0.242.

Which binding signal (RPM ratio (pull-down/input)) does the source give for “GATGATTGTTCTCCCAGCTGATGAATTTTCCTGATCGAGTAAACAAATTTTCCTAATCTTTCTGTTCAAGCGCCATCTAC” here?
The binding signal (RPM ratio (pull-down/input)) was 0.218.

How did the binding signal (RPM ratio (pull-down/input)) turn out when “GATGATTGTTCTCCCAGCTGATGAATTACATTCATCGAGTAAACAAATTTTCCTAATCTTTCTGTTCAAGCGCCATCTAC” was run?
The binding signal (RPM ratio (pull-down/input)) was 0.575.

How did the binding signal (RPM ratio (pull-down/input)) turn out when “GATGATTGTTCTCCCAGCTGATGAATTATGCACTTCGAGTAAACAAATTTTCCTAATCTTTCTGTTCAAGCGCCATCTAC” was run?
Its binding signal (RPM ratio (pull-down/input)) is 1.99.

For “GATGATTGTTCTCCCAGCTGATGAATTCAATTGGTCGAGTAAACAAATTTTCCTAATCTTTCTGTTCAAGCGCCATCTAC”, which binding signal (RPM ratio (pull-down/input)) is on record?
Its binding signal (RPM ratio (pull-down/input)) is 2.04.

With “GATGATTGTTCTCCCAGCTGATGAATTGCACACGTCGAGTAAACAAATTTTCCTAATCTTTCTGTTCAAGCGCCATCTAC” as the sequence, how does the binding signal (RPM ratio (pull-down/input)) read?
Its binding signal (RPM ratio (pull-down/input)) is 0.848.

With “GATGATTGTTCTCCCAGCTGATGAATTCCACTTATCGAGTAAACAAATTTTCCTAATCTTTCTGTTCAAGCGCCATCTAC” as the sequence, how does the binding signal (RPM ratio (pull-down/input)) read?
Its binding signal (RPM ratio (pull-down/input)) is 0.7.

“GATGATTGTTCTCCCAGCTGATGAATTGGTCTGGTCGAGTAAACAAATTTTCCTAATCTTTCTGTTCAAGCGCCATCTAC” was tested. Which binding signal (RPM ratio (pull-down/input)) did it give?
The binding signal (RPM ratio (pull-down/input)) was 0.316.

“GATGATTGTTCTCCCAGCTGATGAATTAGTTGCATCGAGTAAACAAATTTTCCTAATCTTTCTGTTCAAGCGCCATCTAC” was tested. Which binding signal (RPM ratio (pull-down/input)) did it give?
Its binding signal (RPM ratio (pull-down/input)) is 3.86.

With “GATGATTGTTCTCCCAGCTGATGAATTGCGTTCATCGAGTAAACAAATTTTCCTAATCTTTCTGTTCAAGCGCCATCTAC” as the sequence, how does the binding signal (RPM ratio (pull-down/input)) read?
The binding signal (RPM ratio (pull-down/input)) was 1.22.

Which binding signal (RPM ratio (pull-down/input)) does the source give for “GATGATTGTTCTCCCAGCTGATGAATTCCGAAAGTCGAGTAAACAAATTTTCCTAATCTTTCTGTTCAAGCGCCATCTAC” here?
Its binding signal (RPM ratio (pull-down/input)) is 0.229.

For “GATGATTGTTCTCCCAGCTGATGAATTAGGGTCATCGAGTAAACAAATTTTCCTAATCTTTCTGTTCAAGCGCCATCTAC”, which binding signal (RPM ratio (pull-down/input)) is on record?
The binding signal (RPM ratio (pull-down/input)) was 0.712.

How did the binding signal (RPM ratio (pull-down/input)) turn out when “GATGATTGTTCTCCCAGCTGATGAATTGTTGTGTTCGAGTAAACAAATTTTCCTAATCTTTCTGTTCAAGCGCCATCTAC” was run?
Its binding signal (RPM ratio (pull-down/input)) is 6.09.

“GATGATTGTTCTCCCAGCTGATGAATTCCATCCTTCGAGTAAACAAATTTTCCTAATCTTTCTGTTCAAGCGCCATCTAC” was tested. Which binding signal (RPM ratio (pull-down/input)) did it give?
The binding signal (RPM ratio (pull-down/input)) was 0.363.

Which binding signal (RPM ratio (pull-down/input)) does the source give for “GATGATTGTTCTCCCAGCTGATGAATTGCAGAGTTCGAGTAAACAAATTTTCCTAATCTTTCTGTTCAAGCGCCATCTAC” here?
The binding signal (RPM ratio (pull-down/input)) was 0.781.

“GATGATTGTTCTCCCAGCTGATGAATTTTGTGTGTCGAGTAAACAAATTTTCCTAATCTTTCTGTTCAAGCGCCATCTAC” was tested. Which binding signal (RPM ratio (pull-down/input)) did it give?
The binding signal (RPM ratio (pull-down/input)) was 5.59.

How did the binding signal (RPM ratio (pull-down/input)) turn out when “GATGATTGTTCTCCCAGCTGATGAATTCGCGGCCTCGAGTAAACAAATTTTCCTAATCTTTCTGTTCAAGCGCCATCTAC” was run?
Its binding signal (RPM ratio (pull-down/input)) is 0.442.

Which binding signal (RPM ratio (pull-down/input)) does the source give for “GATGATTGTTCTCCCAGCTGATGAATTTTGGATGTCGAGTAAACAAATTTTCCTAATCTTTCTGTTCAAGCGCCATCTAC” here?
Its binding signal (RPM ratio (pull-down/input)) is 0.589.

How did the binding signal (RPM ratio (pull-down/input)) turn out when “GATGATTGTTCTCCCAGCTGATGAATTAGTCGGATCGAGTAAACAAATTTTCCTAATCTTTCTGTTCAAGCGCCATCTAC” was run?
The binding signal (RPM ratio (pull-down/input)) was 0.297.

With “GATGATTGTTCTCCCAGCTGATGAATTCTACACATCGAGTAAACAAATTTTCCTAATCTTTCTGTTCAAGCGCCATCTAC” as the sequence, how does the binding signal (RPM ratio (pull-down/input)) read?
Its binding signal (RPM ratio (pull-down/input)) is 0.482.

With “GATGATTGTTCTCCCAGCTGATGAATTGGAAAGATCGAGTAAACAAATTTTCCTAATCTTTCTGTTCAAGCGCCATCTAC” as the sequence, how does the binding signal (RPM ratio (pull-down/input)) read?
Its binding signal (RPM ratio (pull-down/input)) is 0.164.

How did the binding signal (RPM ratio (pull-down/input)) turn out when “GATGATTGTTCTCCCAGCTGATGAATTCCCCGAATCGAGTAAACAAATTTTCCTAATCTTTCTGTTCAAGCGCCATCTAC” was run?
The binding signal (RPM ratio (pull-down/input)) was 0.178.

“GATGATTGTTCTCCCAGCTGATGAATTCTGGACTTCGAGTAAACAAATTTTCCTAATCTTTCTGTTCAAGCGCCATCTAC” was tested. Which binding signal (RPM ratio (pull-down/input)) did it give?
The binding signal (RPM ratio (pull-down/input)) was 0.344.

For “GATGATTGTTCTCCCAGCTGATGAATTTTTCATTTCGAGTAAACAAATTTTCCTAATCTTTCTGTTCAAGCGCCATCTAC”, which binding signal (RPM ratio (pull-down/input)) is on record?
The binding signal (RPM ratio (pull-down/input)) was 0.293.

With “GATGATTGTTCTCCCAGCTGATGAATTCTGAGCGTCGAGTAAACAAATTTTCCTAATCTTTCTGTTCAAGCGCCATCTAC” as the sequence, how does the binding signal (RPM ratio (pull-down/input)) read?
The binding signal (RPM ratio (pull-down/input)) was 0.457.

With “GATGATTGTTCTCCCAGCTGATGAATTCACAGAATCGAGTAAACAAATTTTCCTAATCTTTCTGTTCAAGCGCCATCTAC” as the sequence, how does the binding signal (RPM ratio (pull-down/input)) read?
Its binding signal (RPM ratio (pull-down/input)) is 0.192.

With “GATGATTGTTCTCCCAGCTGATGAATTGTGTTAATCGAGTAAACAAATTTTCCTAATCTTTCTGTTCAAGCGCCATCTAC” as the sequence, how does the binding signal (RPM ratio (pull-down/input)) read?
The binding signal (RPM ratio (pull-down/input)) was 1.66.
